Article PMC9911399, “Two distinct binding modes provide the RNA-binding protein RbFox with extraordinary sequence specificity”
Residue numbers refer to the chain shown, from its start. This is one part of the list.

T1: RBFOX1 RRM RbFoxmut (Fox-RRM*) (Homo sapiens, UniProt Q9NWB1 109-208, R118D;E147R;N151S;E152T)
T1 sequence: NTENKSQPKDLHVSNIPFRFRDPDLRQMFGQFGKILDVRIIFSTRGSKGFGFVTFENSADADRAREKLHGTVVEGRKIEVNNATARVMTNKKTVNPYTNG

B1: AUUCCUA (DNA:RNA)
RNA: GGGAGACCGGAAUUCAGAUUGUCCAUUCCUAUUAAAUCCCGUCGUAGCCACCA
DNA 1: CAATCTGAATTCCGGTCTCCC
DNA 2: TGGTGGCTACGACGGGATT
B2: UAUCAGG (DNA:RNA)
RNA: B1 RNA with A25U, U26A, C29A, U30G, A31G
DNA 1: CAATCTGAATTCCGGTCTCCC
DNA 2: TGGTGGCTACGACGGGATT
B3: CCUGCAC (DNA:RNA)
RNA: B1 RNA with A25C, U26C, C28G, U30A, A31C
DNA 1: CAATCTGAATTCCGGTCTCCC
DNA 2: TGGTGGCTACGACGGGATT
B4: UGCUACC (DNA:RNA)
RNA: GGGAGACCGGAAUUCAGAUUGUCCUGCUACCUUAAAUCCCGUCGUAGCCACCA
DNA 1: CAATCTGAATTCCGGTCTCCC
DNA 2: TGGTGGCTACGACGGGATT
B5: CGGAGAC (DNA:RNA)
RNA: B4 RNA with U25C, C27G, U28A, A29G, C30A
DNA 1: CAATCTGAATTCCGGTCTCCC
DNA 2: TGGTGGCTACGACGGGATT
B6: CUCAAGG (DNA:RNA)
RNA: B4 RNA with U25C, G26U, U28A, C30G, C31G
DNA 1: CAATCTGAATTCCGGTCTCCC
DNA 2: TGGTGGCTACGACGGGATT
B7: AUAGGCA (DNA:RNA)
RNA: B1 RNA with U27A, C28G, C29G, U30C
DNA 1: CAATCTGAATTCCGGTCTCCC
DNA 2: TGGTGGCTACGACGGGATT
B8: AGAGCGC (DNA:RNA)
RNA: B1 RNA with U26G, U27A, C28G, U30G, A31C
DNA 1: CAATCTGAATTCCGGTCTCCC
DNA 2: TGGTGGCTACGACGGGATT
B9: GGCAGUA (DNA:RNA)
RNA: B1 RNA with A25G, U26G, U27C, C28A, C29G
DNA 1: CAATCTGAATTCCGGTCTCCC
DNA 2: TGGTGGCTACGACGGGATT
B10: GGUCCGU (DNA:RNA)
RNA: B1 RNA with A25G, U26G, U30G, A31U
DNA 1: CAATCTGAATTCCGGTCTCCC
DNA 2: TGGTGGCTACGACGGGATT
B11: UAAUAGA (DNA:RNA)
RNA: B4 RNA with G26A, C27A, C30G, C31A
DNA 1: CAATCTGAATTCCGGTCTCCC
DNA 2: TGGTGGCTACGACGGGATT
B12: CACAGCA (DNA:RNA)
RNA: B4 RNA with U25C, G26A, U28A, A29G, C31A
DNA 1: CAATCTGAATTCCGGTCTCCC
DNA 2: TGGTGGCTACGACGGGATT
B13: UUUGAAU (DNA:RNA)
RNA: B1 RNA with A25U, C28G, C29A, U30A, A31U
DNA 1: CAATCTGAATTCCGGTCTCCC
DNA 2: TGGTGGCTACGACGGGATT
B14: CACAAAC (DNA:RNA)
RNA: B4 RNA with U25C, G26A, U28A, C30A
DNA 1: CAATCTGAATTCCGGTCTCCC
DNA 2: TGGTGGCTACGACGGGATT
B15: UACAUCA (DNA:RNA)
RNA: B4 RNA with G26A, U28A, A29U, C31A
DNA 1: CAATCTGAATTCCGGTCTCCC
DNA 2: TGGTGGCTACGACGGGATT
B16: CUAAAUA (DNA:RNA)
RNA: B1 RNA with A25C, U27A, C28A, C29A
DNA 1: CAATCTGAATTCCGGTCTCCC
DNA 2: TGGTGGCTACGACGGGATT
B17: AAUUAGC (DNA:RNA)
RNA: B4 RNA with U25A, G26A, C27U, C30G
DNA 1: CAATCTGAATTCCGGTCTCCC
DNA 2: TGGTGGCTACGACGGGATT
B18: UAUUUUG (DNA:RNA)
RNA: B1 RNA with A25U, U26A, C28U, C29U, A31G
DNA 1: CAATCTGAATTCCGGTCTCCC
DNA 2: TGGTGGCTACGACGGGATT
B19: UUAAUAU (DNA:RNA)
RNA: B1 RNA with A25U, U27A, C28A, C29U, U30A, A31U
DNA 1: CAATCTGAATTCCGGTCTCCC
DNA 2: TGGTGGCTACGACGGGATT
B20: CGCUGAA (DNA:RNA)
RNA: B4 RNA with U25C, A29G, C30A, C31A
DNA 1: CAATCTGAATTCCGGTCTCCC
DNA 2: TGGTGGCTACGACGGGATT
B21: GGCUAGU (DNA:RNA)
RNA: B4 RNA with U25G, C30G, C31U
DNA 1: CAATCTGAATTCCGGTCTCCC
DNA 2: TGGTGGCTACGACGGGATT
B22: GAUCAGG (DNA:RNA)
RNA: B1 RNA with A25G, U26A, C29A, U30G, A31G
DNA 1: CAATCTGAATTCCGGTCTCCC
DNA 2: TGGTGGCTACGACGGGATT
B23: AUACCUU (DNA:RNA)
RNA: B1 RNA with U27A, A31U
DNA 1: CAATCTGAATTCCGGTCTCCC
DNA 2: TGGTGGCTACGACGGGATT
B24: UUCAGCC (DNA:RNA)
RNA: B4 RNA with G26U, U28A, A29G
DNA 1: CAATCTGAATTCCGGTCTCCC
DNA 2: TGGTGGCTACGACGGGATT
B25: CUUUCGG (DNA:RNA)
RNA: B1 RNA with A25C, C28U, U30G, A31G
DNA 1: CAATCTGAATTCCGGTCTCCC
DNA 2: TGGTGGCTACGACGGGATT
B26: GACGGAC (DNA:RNA)
RNA: B4 RNA with U25G, G26A, U28G, A29G, C30A
DNA 1: CAATCTGAATTCCGGTCTCCC
DNA 2: TGGTGGCTACGACGGGATT
B27: CCCGAAC (DNA:RNA)
RNA: B4 RNA with U25C, G26C, U28G, C30A
DNA 1: CAATCTGAATTCCGGTCTCCC
DNA 2: TGGTGGCTACGACGGGATT
B28: GCUGUAA (DNA:RNA)
RNA: B1 RNA with A25G, U26C, C28G, C29U, U30A
DNA 1: CAATCTGAATTCCGGTCTCCC
DNA 2: TGGTGGCTACGACGGGATT
B29: UAGAUGG (DNA:RNA)
RNA: B4 RNA with G26A, C27G, U28A, A29U, C30G, C31G
DNA 1: CAATCTGAATTCCGGTCTCCC
DNA 2: TGGTGGCTACGACGGGATT
B30: GAGAAGC (DNA:RNA)
RNA: B4 RNA with U25G, G26A, C27G, U28A, C30G
DNA 1: CAATCTGAATTCCGGTCTCCC
DNA 2: TGGTGGCTACGACGGGATT
B31: UCUCCAC (DNA:RNA)
RNA: B1 RNA with A25U, U26C, U30A, A31C
DNA 1: CAATCTGAATTCCGGTCTCCC
DNA 2: TGGTGGCTACGACGGGATT

Biological target: T1, RBFOX1 RRM RbFoxmut (Fox-RRM*)
Experiment: EMSA; HiTS-Eq, 1 nM pool, 10 min; buffer printed only for the single-RNA assays: 10 mM Tris pH 7.5, 150 mM NaCl, 3.4 mM EDTA, 0.001% NP-40, 30 C
Conditions: tags: His6 N-terminal (pET28a); label: 5' 32P
Summary of the method: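 Purified RbFox RRM (wild type or mutant) was equilibrated for 10 min in 50 µL with 1 nM of a 5′-radiolabelled pool of RNA with 7 randomized nucleotides, its flanks annealed to DNA oligonucleotides, across increasing protein concentrations. Free RNA was separated by 8% native PAGE, excised, reverse-transcribed, PCR-barcoded and sequenced on an Illumina HiSeq 2500. Relative association constants came from read-count changes of each variant against the control reaction, normalised to the cognate motif.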

| Binder | binding signal |
| --- | --- |
| B1 | 0.098 KA relative to UGCAUGU |
| B2 | 0.0783 KA relative to UGCAUGU |
| B3 | 0.09 KA relative to UGCAUGU |
| B4 | 0.147 KA relative to UGCAUGU |
| B5 | 0.0725 KA relative to UGCAUGU |
| B6 | 0.0692 KA relative to UGCAUGU |
| B7 | 0.115 KA relative to UGCAUGU |
| B8 | 0.103 KA relative to UGCAUGU |
| B9 | 0.114 KA relative to UGCAUGU |
| B10 | 0.136 KA relative to UGCAUGU |
| B11 | 0.0775 KA relative to UGCAUGU |
| B12 | 0.123 KA relative to UGCAUGU |
| B13 | 0.0897 KA relative to UGCAUGU |
| B14 | 0.0493 KA relative to UGCAUGU |
| B15 | 0.0646 KA relative to UGCAUGU |
| B16 | 0.111 KA relative to UGCAUGU |

| Binder | binding signal |
| --- | --- |
| B17 | 0.088 KA relative to UGCAUGU |
| B18 | 0.0891 KA relative to UGCAUGU |
| B19 | 0.0923 KA relative to UGCAUGU |
| B20 | 0.102 KA relative to UGCAUGU |
| B21 | 0.107 KA relative to UGCAUGU |
| B22 | 0.0758 KA relative to UGCAUGU |
| B23 | 0.094 KA relative to UGCAUGU |
| B24 | 0.113 KA relative to UGCAUGU |
| B25 | 0.0623 KA relative to UGCAUGU |
| B26 | 0.104 KA relative to UGCAUGU |
| B27 | 0.07 KA relative to UGCAUGU |
| B28 | 0.126 KA relative to UGCAUGU |
| B29 | 0.0721 KA relative to UGCAUGU |
| B30 | 0.0713 KA relative to UGCAUGU |
| B31 | 0.124 KA relative to UGCAUGU |
